Laboratory results reported in PubChem BioAssay AID624296 (National Center for Advancing Translational Sciences (NCATS), 2012).
Out of some 350,000 compounds screened, about 9,900 (2.8%) were called active. The inconclusive results got no clear call from the source; some entries with a clear call stand among them for comparison. Calls follow the shape of the dose curve; as a rule, active = well fitted activation curve with a large enough effect; inconclusive = small, poorly fitted or top-dose-only effect; inactive = no such curve, though single readings can be large or run the other way. No potency is given beside an inconclusive call; the fits are too rough.
Potency is read from the fitted curve at half-maximal effect; tags tell the direction and shape of the fitted curve.

Assay: A quantitative high throughput screen for small molecules that induce DNA re-replication in MCF 10a normal breast cells. Also: nearly all actives have a fitted effect of over 50% in size.
Conditions: MCF 10A DNA re-replication, Hoechst nuclear intensity, 48 h; series mostly up to 46.1 µM
For `CCOc1cc(N2CCOCC2)c(OCC)cc1NC(=O)c1cc(C)cc(C)c1`, the Potency was inconclusive [activator, partial curve, poor fit]. In the case of `O=C(c1cnc(N2CCN(c3ncccn3)CC2)c2ccccc12)N1CCN(c2ncccn2)CC1`, the Potency is reported as inconclusive [activator, single point]. For `COc1ccc(N2CCN(C(=O)CNC(=O)Cc3ccccc3)CC2)cc1`, the Potency was “inactive”. With `O=C(CC(Cc1ccccc1)c1ccco1)NC1CCCCC1` (stereo unspecified) the Potency was “inactive”. With `O=C(c1cc(COc2c(F)cccc2F)on1)N1CCN(C2CCCCC2)CC1` the Potency was inconclusive [activator, full curve]. With `O=C(COc1ccc(-c2nnco2)cc1)N1CCN(S(=O)(=O)c2ccccc2)CC1` the Potency was inconclusive [activator, partial curve, poor fit]. With `CCCCNC(=O)O[C@H]1C[C@@H]2CCN3C(=O)CCC(C)(C)[C@H](C1)[C@H]23` the Potency was inconclusive [activator, partial curve, poor fit]. With `COC(=O)[C@@]1(Cc2ccc(F)cc2)[C@H]2c3cc(C(=O)N(C)C)n(Cc4ccc(OC(F)(F)F)cc4)c3C[C@H]2CN1C(=O)c1ccccc1` the Potency was inconclusive [activator, single point]. For `CN(C)S(=O)(=O)c1cccc(C(=O)NCC(=O)NC2CCN(Cc3ccccc3)CC2)c1`, the Potency was inconclusive [activator, partial curve, poor fit]. In the case of `CN(C(=O)c1ccc(F)c(S(=O)(=O)N2CCOCC2)c1)C1CCCCC1`, the Potency is reported as inconclusive [activator, partial curve, poor fit]. With `Cc1c(C(=O)OC(C)C)sc(NC(=O)c2cnccn2)c1C(=O)OC(C)C` the Potency was “inactive”. With `CN1CCN(CC(=O)Nc2c(C(=O)c3ccccc3)oc3ccccc23)CC1` the Potency was “inactive”. In the case of `CCOC(=O)c1oc2ccccc2c1NC(=O)c1ccccc1OC`, the Potency is reported as inconclusive [activator, partial curve, poor fit]. In the case of `O=C(CSCc1ccccc1)Nc1cccc(C(=O)Nc2ccccc2C(=O)O)c1`, the Potency is reported as inconclusive [activator, partial curve, poor fit]. In the case of `CS(=O)(=O)NNC(=O)c1sccc1OCc1ncc(C(F)(F)F)cc1Cl`, the Potency is reported as inconclusive [activator, full curve, poor fit]. With `Cc1c(OCC(N)=O)ccc2c(-c3ccccc3)cc(=O)oc12` the Potency was inconclusive [activator, full curve]. For `O=C(Nc1cccc2ccccc12)c1onc2c1CCCC2`, the Potency was inconclusive [activator, single point]. In the case of `Cc1ccc(-n2c(-c3ccc(Br)cc3)c[n+]3c2CCc2ccc4cccnc4c2-3)cc1`, the Potency is reported as inconclusive [activator, single point]. With `N#Cc1nc(COc2ccc(Cl)cc2)oc1N1CCCC1` the Potency was inconclusive [activator, partial curve, poor fit]. With `O=C(Nc1cccc(-c2csc(Nc3cccc(C(F)(F)F)c3)n2)c1)c1cc([N+](=O)[O-])cc(C(F)(F)F)c1` the Potency was inconclusive [activator, partial curve, poor fit]. With `Cc1ccc(NC(=O)C2CCN(S(=O)(=O)c3ccc4c(c3)NC(=O)C(C)S4)CC2)cc1C` (stereo unspecified) the Potency was “inactive”. With `CCOCCCNC(=O)c1cc(=O)n(Cc2cccc(C)c2)c2ccccc12` the Potency was inconclusive [activator, single point]. In the case of `O=C1C2C3C=CC(C3)C2C(=O)N1Nc1ccc([N+](=O)[O-])cc1[N+](=O)[O-]` (stereo unspecified), the Potency is reported as inconclusive [activator, single point]. For `COc1ccc(C2/C(=C(/O)c3ccccc3)C(=O)C(=O)N2CCN2CCOCC2)c(OC)c1` (stereo unspecified), the Potency was “inactive”. With `O=C1c2ccccc2-c2cccc(C(=O)N3CCCCCC3)c21` the Potency was inconclusive [activator, full curve, poor fit]. For `O=C(CN1C(=O)c2ccccc2S1(=O)=O)c1cccc(Br)c1`, the Potency was “inactive”. In the case of `Cc1cc(C(=O)COC(=O)c2cccc(S(=O)(=O)N(C)C)c2)c(C)n1CC1CCCO1` (stereo unspecified), the Potency is reported as “inactive”. With `COc1ccc(-n2cc(-c3ccccc3)[nH]c2=S)cc1` the Potency was “inactive”. For `O=C(O)c1ccccc1C(=O)NNc1ccc(F)cc1`, the Potency was inconclusive [activator, single point]. For `CCC(=O)OCC(=O)Nc1ccc2c(c1)OCO2`, the Potency was inconclusive [activator, single point]. In the case of `CCCCNc1c(-c2ccc(OC)c(Sc3ccc(OC)cc3)c2)nc2cnccn12`, the Potency is reported as inconclusive [activator, partial curve, poor fit]. With `CCCC/C=C1/CCC(CN(C)C)C1=O` (stereo unspecified) the Potency was active: 5.8 µM. In the case of `N#CC(C#N)=C(Nc1ccc(F)cc1)SCc1cccc(Br)c1`, the Potency is reported as active: 3.26 µM. For `CCC1(c2ccc(F)cc2)NC(=O)N(CC(=O)Nc2ccc(-c3nc4ccc(C)cc4s3)cc2)C1=O` (stereo unspecified), the Potency was inconclusive [activator, partial curve, poor fit]. In the case of `COc1ccc(N2CC(C(=O)OC(C)C(=O)c3ccccc3)CC2=O)cc1` (stereo unspecified), the Potency is reported as “inactive”. In the case of `O=C1SCCN1N=Cc1ccc([N+](=O)[O-])o1`, the Potency is reported as inconclusive [activator, single point]. In the case of `CC(NC(=S)NCCc1ccccc1)C(c1cccs1)N1CCN(Cc2ccccc2)CC1` (stereo unspecified), the Potency is reported as inconclusive [activator, partial curve, poor fit]. For `COc1cccc(-c2nc(CS(=O)CC(=O)NC(C)CCc3ccccc3)c(C)o2)c1` (stereo unspecified), the Potency was inconclusive [activator, partial curve, poor fit]. For `O=[N+]([O-])c1ccc(S(=O)Cc2ccccc2)c([N+](=O)[O-])c1` (stereo unspecified), the Potency was active: 4.11 µM. For `O=[N+]([O-])c1ccc(F)cc1Oc1nc(-c2cccnc2)nc2ccccc12`, the Potency was inconclusive [activator, single point]. For `CC(C)Cc1ccc(C(=O)Nc2ccc(Cc3ccncc3)cc2)o1`, the Potency was “inactive”.
